Reference: the supplement of paper PMC12355420
Structures can show the parent of a compound that is named as a salt. Some of the results follow. Cut-off read from the data, not from the text of the source: active = 0.5 or less and inactive = the rest. Most values come without repeats; read them as rough.

How the values were obtained:
Conditions in all cases: 50 µM; 24 h
[1] = tested on: HeLa VPS33A reporter cells; assay: relative cell viability (CellMask signal) vs DMSO (fraction of DMSO); higher = less cytotoxic;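 note: primary screen of an FDA-approved drug library in HeLa reporter cells in 96-well format, CellMask signal normalized to DMSO-treated wells set as 1, under 0.5 deemed highly cytotoxic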
[2] = tested on: HeLa VPS33A R498W KI + HA-SDC1-FLAG; assay: relative GAG core protein HA-SDC1 amount per cell number vs DMSO (fraction of DMSO); higher = more SDC1 (GAG core protein);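 note: HA-SDC1 level read out by In-Cell Western staining with an anti-HA antibody against the N-terminal tag, screening FDA-approved library drugs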
[3] = tested on: HeLa VPS33A KO + NLuc-VPS33A R498W; assay: relative mutant VPS33A R498W amount (NanoLuc luminescence) vs DMSO (fraction of DMSO); HeLa model of a glycosaminoglycan (GAG) storage disease; KI is knock-in and KO knock-out; SDC1 is syndecan 1; higher = higher mutant VPS33A level;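 note: screen of an FDA-approved drug library, NanoLuc luminescence read after lysing the treated cells, taken as a measure of mutant VPS33A protein stability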

Structure (SMILES)	relative cell viability [1]	relative GAG core protein HA-SDC1 amount per cell number [2]	relative mutant VPS33A R498W amount [3]
Cc1ccnc(NS(=O)(=O)c2ccc(N)cc2)n1 [Sulfamerazine]	1.21	inactive: 0.885	0.972
CC(C)C[C@H](N)C(=O)O [L-Leucine]	1.01	inactive: 0.953	1.05
CC(C)OC(=O)C(C)(C)Oc1ccc(C(=O)c2ccc(Cl)cc2)cc1 [Fenofibrate]	0.951	inactive: 0.866	0.957
O=C(O)c1cc(=O)c2ccccc2o1 [Chromocarb]	1.02	inactive: 1	1.21
NC[C@@H]1O[C@H](O[C@H]2[C@@H](O)[C@H](O[C@@H]3[C@@H](O)[C@H](N)C[C@H](N)[C@H]3O[C@H]3O[C@H](CO)[C@@H](O)[C@H](O)[C@H]3N)O[C@@H]2CO)[C@H](N)[C@@H](O)[C@@H]1O [Paromomycin Sulfate]	0.892	inactive: 1.08	0.97
COc1ccc(-c2nc3cc(C4=NNC(=O)CC4C)ccc3[nH]2)cc1 (stereo unspecified) [Pimobendan]	1.04	inactive: 1.1	1.16
CO[C@H]1C(=O)[C@]2(C)[C@@H](OC)C[C@H]3OC[C@@]3(OC(C)=O)[C@H]2[C@H](OC(=O)c2ccccc2)[C@]2(O)C[C@H](OC(=O)[C@H](O)[C@@H](NC(=O)OC(C)(C)C)c3ccccc3)C(C)=C1C2(C)C [Cabazitaxel]	0.521	active: 0.325	0.627
CC1OC(O)C(O)C(O)C1O [L-(-)-Fucose]	1.19	inactive: 0.739	1.13
Clc1ccc(CCCOCCCN2CCCCC2)cc1 [Pitolisant hydrochloride]	0.938	inactive: 1	0.533
O=C(O)c1ccc(C(=O)O)cc1 [Terephthalic acid]	1.11	inactive: 0.813	1.01
c1ccc(CC2=NCCN2)cc1 [Tolazoline HCl]	1.25	inactive: 0.767	0.912
CC12CC3CC(C)(C1)CC(N)(C3)C2 [Memantine hydrochloride]	1.03	inactive: 0.653	0.964
CN1CCc2nc(C(=O)N[C@@H]3C[C@@H](C(=O)N(C)C)CC[C@@H]3NC(=O)C(=O)Nc3ccc(Cl)cn3)sc2C1 [Edoxaban]	1.29	inactive: 0.847	1.27
C/C1=C2N=C(/C=C3N=C(/C(C)=C4\[N-]C(C(CC(N)=O)C4(C)CCC(=O)NCC(C)OP(=O)([O-])OC4C(CO)OC(n5cnc6cc(C)c(C)cc65)C4O)C4(C)N=C1C(CCC(N)=O)C4(C)CC(N)=O)C(CCC(N)=O)C\3(C)C)C(CCC(N)=O)C/2(C)CC(N)=O.[CH3-].[Co+3] (stereo unspecified) [Methylcobalamin]	1.01	inactive: 0.789	1.24
NCC(=O)NCC(=O)O [Glycylglycine]	1.04	inactive: 1.03	1.12
C[C@@H](O)[C@H]1C(=O)N2C(C(=O)O)=C(SCCNC=N)C[C@H]12 [Imipenem (hydrate)]	1.1	inactive: 0.755	1.03
CC(=O)O[C@]1(C(C)=O)CC[C@H]2[C@@H]3C[C@H](C)C4=CC(=O)CC[C@]4(C)[C@H]3CC[C@@]21C [Medroxyprogesterone acetate]	1.23	inactive: 1.7	1.44
O=C(O)COCCN1CCN(C(c2ccccc2)c2ccc(Cl)cc2)CC1 (stereo unspecified) [Cetirizine DiHCl]	0.984	inactive: 1.1	1.31
CN(C)CCC[C@@]1(c2ccc(F)cc2)OCc2cc(C#N)ccc21 [Escitalopram Oxalate]	1.07	inactive: 0.86	0.871
Cc1nnc(C(=O)NC(C)(C)c2nc(C(=O)NCc3ccc(F)cc3)c(O)c(=O)n2C)o1 [Raltegravir (MK-0518)]	1.19	inactive: 1.04	0.964
NS(=O)(=O)c1cc(C2(O)NC(=O)c3ccccc32)ccc1Cl (stereo unspecified) [Chlortalidone]	0.997	inactive: 0.906	1.22
CC(C)=CCC[C@](C)(O[C@@H]1O[C@H](CO[C@@H]2O[C@H](CO)[C@@H](O)[C@H](O)[C@H]2O)[C@@H](O)[C@H](O)[C@H]1O)[C@H]1CC[C@]2(C)[C@@H]1[C@H](O)C[C@@H]1[C@@]3(C)CC[C@H](O[C@@H]4O[C@H](CO)[C@@H](O)[C@H](O)[C@H]4O[C@@H]4O[C@H](CO)[C@@H](O)[C@H](O)[C@H]4O)C(C)(C)[C@@H]3CC[C@]12C [Ginsenoside Rb1]	0.918	inactive: 0.689	1.34
